For assay [1], the target named is T1, cFVIIa-chimera (chimeric cynomolgus monkey FVIIa construct) (human; cynomolgus monkey).
T1 construct: range 89-406
The assay is described as follows: SPR 37 C, cFVIIa-chimera captured via antibody 4F9 on anti-murine IgG, antibody injected; Buffer 1 (pH 7.4, 5 mM CaCl2).

In assay [2] the target is T1, cFVIIa-chimera (chimeric cynomolgus …). The assay is described as follows: SPR 37 C, cFVIIa-chimera captured via antibody 4F9 on anti-murine IgG, antibody injected; Buffer 2 (pH 6.0, 5 uM CaCl2).

B1: mAb0842(OA) (other)
heavy: QVQLQESGPGLVKPSQTLSLTCTVSGYSISSDSAWSWIRQPPGKGLEWIGYIQYSGSTNYNPSLKSRVTISRDTSKNQFSLKLSSVTAADTAVYYCARSVNYYGNSFAVGYWGQGTLVTVSSASTKGPSVFPLAPCSRSTSESTAALGCLVKDYFPEPVTVSWNSGALTSGVHTFPAVLQSSGLYSLSSVVTVPSSSLGTKTYTCNVDHKPSNTKVDKRVESKYGPPCPPCPAPEFLGGPSVFLFPPKPKDTLMISRTPEVTCVVVDVSQEDPEVQFNWYVDGVEVHNAKTKPREEQFNSTYRVVSVLTVLHQDWLNGKEYKCKVSNKGLPSSIEKTISKAKGQPREPQVYTLPPSQEEMTKNQVSLSCAVKGFYPSDIAVEWESNGQPENNYKTTPPVLDSDGSFFLVSRLTVDKSRWQEGNVFSCSVMHEALHNHYTQKSLSLSLGK
light: EIVLTQSPATLSLSPGERATLSCRASQGISDYLHWYQQKPGEAPRLLIKYTSQPATGIPARFSGSGSGTDFTLTISSLEPEDFAVYYCQNGHSFPLTFGQGTKLEIKRTVAAPSVFIFPPSDEQLKSGTASVVCLLNNFYPREAKVQWKVDNALQSGNSQESVTEQDSKDSTYSLSSTLTLSKADYEKHKVYACEVTHQGLSSPVTKSFNRGEC
chain: [no letters for human IgG4 Fc with S228P T366W (EU numbers)]
notes: one-armed antibody, constant domain type F (knob-in-hole): heavy chain, truncated heavy chain (trHC) and one light chain; also called monovalent humanized 11F2
As usually defined, the Kd is the equilibrium constant for the complex coming apart. For B1, the equilibrium dissociation constant (Kd) was 1.02 nM in assay [1] and 1.6 nM in assay [2].

B2: mAb0077(OA) (other)
heavy: DVQLQESGPGLVEPSQSLSLTCTVTGYSITSDCAWSWIRQFPGNKLEWMGYINYSGSTNYNPSLKSRISVTRDTSKNQFFLRLSSVTAEDTATYYCTRSVNYYGNSFAVGYWGQGTSVTVSSASTKGPSVFPLAPCSRSTSESTAALGCLVKDYFPEPVTVSWNSGALTSGVHTFPAVLQSSGLYSLSSVVTVPSSSLGTKTYTCNVDHKPSNTKVDKRV[no letters for human IgG4 Fc with S228P (EU numbers)]
light: DIVMTQSPATLSVTAGDRVSLSCRASQGISDYLHWYQQKSHESPRLLIKYTSQPVSGIPSRFSGSGSGSEFTLSINSVEPEDVGVYYCQNGHSFPLTFGAGTKLELKRTVAAPSVFIFPPSDEQLKSGTASVVCLLNNFYPREAKVQWKVDNALQSGNSQESVTEQDSKDSTYSLSSTLTLSKADYEKHKVYACEVTHQGLSSPVTKSFNRGEC
chain: VESKYGPPCPPCPAPEFLGGPSVFLFPPKPKDTLMISRTPEVTCVVVDVSQEDPEVQFNWYVDGVEVHNAKTKPREEQFNSTYRVVSVLTVLHQDWLNGKEYKCKVSNKGLPSSIEKTISKAKGQPREPQVYTLPPSQEEMTKNQVSLTCLVKGFYPSDIAVEWESNGQPENNYKTTPPVLDSDGSFLLYSKLTVDKSRWQEGNVFSCSVMHEALHNHYTQKSLSLSLGK
notes: one-armed (monovalent) antibody, murine VL/VH, constant domain type E (Duobody): heavy chain, truncated heavy chain (trHC) and one light chain; also called monovalent 11F2; one-armed 11F2
B2: the results for the dissociation constant Kd in assay [1] and in assay [2] were 0.469 nM and 0.652 nM, respectively.

Values taken from US20220064329A1 (Novo Nordisk, published 2022).
